Laboratory results published in PubChem BioAssay AID686979 (National Center for Advancing Translational Sciences (NCATS), 2013).
Where “and” joins values, the source holds several entries; their conditions need not be identical. Equal entries are not always repeated. Hit rate of the full screen: of about 420,000 compounds, about 50,000 (12%) were called active. The inconclusive results got no clear call from the source; some entries with a clear call stand among them for comparison. Calls follow the shape of the dose curve; as a rule, active = well fitted inhibition curve with a large enough effect; inconclusive = small, poorly fitted or top-dose-only effect; inactive = flat fitted curve, though single readings scatter. Where the call is inconclusive, the potency comes from a doubtful curve fit.
% is scaled to controls: 0 for no effect and ±100 for the full control effect; potency is read from the fitted curve at half-maximal effect; tags tell the direction and shape of the fitted curve.

Assay: qHTS for Inhibitors of human tyrosyl-DNA phosphodiesterase 1 (TDP1): qHTS in cells in presence of CPT; also: nearly all actives have a fitted effect of over 55% in size
Conditions: chicken DT40 Tdp1-/-;hTDP1 cells + 20 nM CPT, ATP luminescence, 48 h; activity change, negative = growth inhibition: at 46.2 µM (top of the series) unless noted
Procedure, shortened: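 Chicken DT40 Tdp1-/- cells complemented with human TDP1, 400 cells/well, exposed to compounds plus 20 nM camptothecin for at least 48 h at 37 C; viability read as ATP content by CellTiter-Glo luminescence.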
In the case of `CCOC(=O)c1c(NC(=O)CS(=O)(=O)c2ccc(C)cc2)sc2c1CCCCC2`, the Potency is reported as inconclusive: 18.4 µM [inhibitor, single point].
For `CCCNC(=O)c1ccc2c(c1)ncn2-c1ccc(C)cc1C`, the Potency was active: 16.4 µM.
For `COc1ccc(NC(=O)Cn2c(=O)oc3cc(S(=O)(=O)NC4CCCC4)ccc32)cc1OC`, the Potency was inconclusive: 18.4 µM [inhibitor, single point].
With `COc1ccc(NS(=O)(=O)c2cc(C(=O)N3CCN(C/C=C/c4ccccc4)CC3)ccc2C)cc1` the Potency was inconclusive: 29.1 µM [inhibitor, single point].
With `COc1cc(C(=O)NC(=S)Nc2ccc3ccccc3c2)cc(OC)c1OC` the Potency was active: 23.1 µM.
In the case of `O=C1C=C(NCc2ccco2)CC(c2ccc(Cl)cc2)C1` (stereo not given), the Potency is reported as inconclusive: 23.1 µM [inhibitor, partial curve].
For `O=C(c1ccco1)N1N=C(c2ccco2)CC1c1ccc(Cl)cc1Cl` (stereo not given), the activity change, negative = growth inhibition was inconclusive: -34.4% [inhibitor].
In the case of `CCc1nnc(NC(=O)C2CCCN(S(=O)(=O)c3ccccc3)C2)s1` (stereo not given), the Potency is reported as “inactive”.
With `Cc1onc(-c2ccc(Cl)cc2Cl)c1-c1csc(N/N=C/c2ccccc2)n1` the Potency was inconclusive: 20.6 µM [inhibitor, single point].
With `COC(=O)c1sccc1NC(=S)N1CCC(C(N)=O)CC1` the Potency was “inactive”.
For `C/C(=N/NS(=O)(=O)c1cccc([N+](=O)[O-])c1)c1ccncc1`, the Potency was inconclusive: 18.4 µM [inhibitor, single point].
With `CN(C)CCNC(=O)c1ccc(-n2c(-c3ccccc3)cc3c2CCCC3)cc1` the Potency was inconclusive: 29.1 µM [inhibitor, single point].
With `COc1ccc(-c2c3c(nc4sc5c(Cl)nc(C)nc5c24)CCC3)cc1` the Potency was “inactive”.
In the case of `Cc1onc(-c2ccccc2)c1C(=O)N/N=C/c1cc(Br)c(Br)o1`, the Potency is reported as inconclusive: 18.4 µM [inhibitor, single point].
In the case of `CC(C)(C)c1cc(CCC(=O)N2CCNCC2)c(C(C)(C)C)cc1O`, the Potency is reported as inconclusive: 29.1 µM [inhibitor, single point].
For `CC(CN(C)C)CN1c2ccccc2CCc2ccccc21` (stereo not given), the Potency was inconclusive: 12.8 µM [inhibitor, single point] and inconclusive: 25.9 µM [inhibitor, single point].
For `Cn1cnnc1SCC(=O)Nc1ccc(S(=O)(=O)N2CCOCC2)cc1`, the Potency was “inactive”.
With `COc1ccc(CN2CCC(n3cc(C(=O)N4CCCCC4)nn3)CC2)c(OC)c1` the activity change, negative = growth inhibition was inactive: 2.22% [at 9.04 µM].
For `COc1ccccc1-c1noc(-c2ccccc2C(=O)Nc2ccccc2)n1`, the Potency was “inactive”.
With `CN(c1ccc(C(=O)Nc2cccnc2)cc1)S(C)(=O)=O` the Potency was “inactive”.
For `Cc1cc2c3c(cccc3n1)C(=O)c1ccccc1-2`, the Potency was inconclusive: 6.51 µM [inhibitor, single point].
In the case of `Cn1c(=O)c2c(SCC(=O)N3CCc4ccccc43)nc(-c3ccccc3Cl)nc2n(C)c1=O`, the Potency is reported as “inactive”.
For `C#CCOCCOCCOCCNc1nc(N2CCOCC2)nc(N2CCN(C(=O)[C@H]([C@@H](C)CC)n3cc([C@@H](N)CC(C)C)nn3)CC2)n1`, the Potency was inconclusive: 23.1 µM [inhibitor, single point].
With `COc1cccc(/C=N/NC(=O)c2ccc(OCc3cccc(Br)c3)cc2)c1` the Potency was inconclusive: 29.1 µM [inhibitor, single point].
In the case of `C=C(C)Cn1c(N2CC(C)CC(C)C2)nc2c1c(=O)[nH]c(=O)n2C` (stereo not given), the Potency is reported as inconclusive: 32.6 µM [inhibitor, single point].
With `CCOC(=O)COc1ccccc1C(=O)c1cnn(-c2ccccc2)c1` the Potency was “inactive”.
With `CCCCOc1ccc(C(=O)NCC(=O)NCC(c2ccco2)N2CCCCC2)cc1` (stereo not given) the Potency was inconclusive: 29.1 µM [inhibitor, single point].
In the case of `COc1ccc(C(=O)NCc2nnc(SCC(=O)N3CCc4ccccc43)n2Cc2ccccc2)cc1`, the Potency is reported as inconclusive: 29.1 µM [inhibitor, single point].
With `CC(/C=C1\SC(=S)N(CCC(=O)Nc2ccc(O)cc2)C1=O)=C\c1ccccc1` the Potency was active: 18.4 µM.
In the case of `CC(=O)NC(c1ccccc1)c1cccnc1` (stereo not given), the Potency is reported as “inactive”.
With `Cc1nc(-c2ccccc2)sc1-c1ccc(SCC(=O)NCc2ccc(F)cc2)nn1` the Potency was “inactive”.
With `CN(Cc1ccccc1)C(=O)c1ccc(NC(=O)Cc2ccc(NC(=O)C3CCCN(C(=O)c4ccccc4)C3)cc2)cc1` (stereo not given) the Potency was “inactive”.
For `CCOC(=O)/C=c1/s/c(=C\c2c(OC)ccc3ccccc23)c(=O)n1CC(=O)NCC1CCCO1` (stereo not given), the Potency was active: 23.1 µM.
In the case of `CCC(CC)C(=O)NC1CC(=O)N(c2ccc3c(c2)OCCO3)C1` (stereo not given), the Potency is reported as “inactive”.
With `CC1=Nc2cc(C(=O)NCCc3ccc(Cl)cc3)ccc2Sc2ccc(C)cc21` the Potency was active: 6.51 µM.
